# Results reported in the supplement of paper PMC9446081.
# Hit rate of the full screen: of about 39,000 compounds, about 220 (0.56%) showed activity. The list shows a part of the results.
# Tested on: Escherichia coli K-12 BW25113
# Assay: relative growth (OD600 normalised to plate interquartile mean) (fraction); higher = less growth inhibition, active = 0.2 or less
# Settings: 50 µM; LB; incubation time: overnight (16-24 h)
# 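Further: static incubation at 37 °C against the wild-type strain, values averaged over two biological replicates.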
row,Compound,relative growth
1,CO[C@H]1CN(C)C(=O)c2ccc(NS(C)(=O)=O)cc2OC[C@@H](C)N(C(=O)CN(C)C)C[C@@H]1C,inactive: 0.999
2,CO[C@@H](CN(C)C(=O)c1ccccc1F)[C@@H](C)CN([C@@H](C)CO)S(=O)(=O)c1ccc(Cl)cc1,inactive: 1
3,C[C@@H]1CCCCO[C@@H](CN(C)C(=O)Nc2ccc3c(c2)OCO3)[C@@H](C)CN([C@@H](C)CO)C(=O)c2cc(NC(=O)CCC(F)(F)F)ccc2O1,inactive: 1.01
4,C[C@H](N)[C@H](O)c1cccc(O)c1,inactive: 0.99
5,COCCCN1C(=O)[C@@]2(Cc3ccccc31)c1ccccc1C(=O)N(Cc1ccccc1C(F)(F)F)[C@H]2c1ccc(CO)cc1,inactive: 0.986
6,Cc1noc(C)c1NC(=O)N(C)C[C@H]1Oc2ccc(NC(=O)NC(C)C)cc2C(=O)N([C@H](C)CO)C[C@H]1C,inactive: 0.994
7,Cc1cc(C(=O)N2CCCC[C@@H]2CCOc2cccc(CN(C)Cc3cccc4cccnc34)c2)c(=O)[nH]c1C,inactive: 0.987
8,C[C@H](CO)N1C[C@H](C)[C@H](CN(C)Cc2ccncc2)OCCCC[C@H](C)Oc2ccc(NS(C)(=O)=O)cc2C1=O,inactive: 1.01
9,COc1ccc(NC(=O)N(C)C[C@@H]2Oc3ccc(NC(=O)CCCN(C)C)cc3C(=O)N([C@H](C)CO)C[C@@H]2C)cc1,inactive: 0.999
10,CN(C)Cc1cn(CC[C@@H]2CC[C@H](NS(=O)(=O)c3ccccc3)[C@@H](CO)O2)nn1,inactive: 1.01
11,C[C@@H]1CN([C@@H](C)CO)C(=O)c2cc(NC(=O)Nc3ccc(C(F)(F)F)cc3)ccc2O[C@@H](C)CCCCO[C@H]1CN(C)S(=O)(=O)c1cccs1,inactive: 1
12,C[C@@H]1CN([C@@H](C)CO)C(=O)c2cccc(NS(=O)(=O)c3ccccc3)c2O[C@H]1CN(C)CC1CC1,inactive: 0.98
13,C[C@H]1CCCCO[C@@H](CN(C)Cc2ccc(C(=O)O)cc2)[C@@H](C)CN([C@@H](C)CO)C(=O)c2cc(NC(=O)CCC(F)(F)F)ccc2O1,inactive: 0.962
14,COc1ccc(CN(C)C[C@H]2OCCCC[C@@H](C)Oc3ccc(NC(=O)CCC(F)(F)F)cc3C(=O)N([C@H](C)CO)C[C@H]2C)cc1,inactive: 0.953
15,COc1ccc(CN(C)C[C@@H]2Oc3c(NS(C)(=O)=O)cccc3C(=O)N([C@@H](C)CO)C[C@@H]2C)cc1,inactive: 0.999
16,C[C@H](CO)N1C[C@H](C)[C@H](CN(C)S(=O)(=O)c2cn(C)cn2)Oc2ncc(C#CCN(C)C)cc2C1=O,inactive: 0.984
17,C[C@H]1CN([C@@H](C)CO)C(=O)Cc2cc(NC(=O)CCCCCC(=O)Nc3ccccc3N)ccc2O[C@H]1CN(C)C(=O)Nc1ccccc1,inactive: 0.974
18,C[C@@H]1CCCCO[C@H](CN(C)S(=O)(=O)c2cccs2)[C@H](C)CN([C@@H](C)CO)C(=O)c2cc(NS(=O)(=O)c3ccc(Cl)cc3)ccc2O1,inactive: 1.05
19,COc1cc(OC)c(CN(CC#CCOC(=O)NCCCCCC(=O)NO)S(=O)(=O)c2ccccc2[N+](=O)[O-])c(OC)c1,inactive: 1

row,Compound,relative growth
1,Cc1noc(C)c1NC(=O)Nc1ccc2c(c1)CC(=O)N([C@@H](C)CO)C[C@H](C)[C@@H](CN(C)S(=O)(=O)c1cccs1)O2,inactive: 0.984
2,O=C(NCC[C@@H]1CC[C@H](NS(=O)(=O)c2cccc(F)c2)[C@H](CO)O1)C1CC1,inactive: 0.996
3,CN1C(=O)c2cc(NC(=O)c3cccs3)ccc2OC[C@H]2O[C@H](CC(=O)NCC(F)(F)F)CC[C@@H]21,inactive: 1.01
4,Cc1ccc(S(=O)(=O)Nc2ccc3c(c2)C(=O)N([C@H](C)CO)C[C@H](C)[C@H](CN(C)Cc2ccc(C(=O)O)cc2)OCCCC[C@H](C)O3)cc1,inactive: 0.993
5,C[C@@H]1CCCCO[C@@H](CN(C)C(=O)Nc2ccccc2)[C@H](C)CN([C@H](C)CO)C(=O)c2cc(NC(=O)Nc3ccc(C(F)(F)F)cc3)ccc2O1,inactive: 1
6,CN1C(=O)c2cc(NS(=O)(=O)c3ccc(F)cc3)ccc2OC[C@H]2O[C@H](CC(=O)NCC(F)(F)F)CC[C@H]21,inactive: 1.01
7,Cc1noc(C)c1S(=O)(=O)Nc1ccc2c(c1)C(=O)N([C@H](C)CO)C[C@@H](C)[C@@H](CN(C)C(=O)Nc1ccc(C(F)(F)F)cc1)OCCCC[C@@H](C)O2,inactive: 1.01
8,COc1ccccc1C(=O)Nc1ccc2c(c1)C(=O)N(C)[C@H]1CC[C@H](CC(=O)NCc3ccc(Cl)c(Cl)c3)O[C@H]1CO2,inactive: 1.04
9,Cc1ccc(S(=O)(=O)Nc2ccc3c(c2)C(=O)N([C@H](C)CO)C[C@@H](C)[C@H](CN(C)C(=O)Nc2ccc(C(F)(F)F)cc2)OCCCC[C@@H](C)O3)cc1,inactive: 1.02
10,COc1ccc(NC(=O)Nc2ccc3c(c2)C(=O)N([C@@H](C)CO)C[C@H](C)[C@@H](CN(C)S(=O)(=O)c2ccc(Cl)cc2)OCCCC[C@H](C)O3)cc1,inactive: 1.06
11,C[C@H](CO)N1C[C@H](C)[C@@H](CN(C)S(=O)(=O)c2cn(C)cn2)Oc2c(NC(=O)Nc3ccc(F)cc3)cccc2C1=O,inactive: 0.99
12,CC(C)CCCC(C)C1CCC2C3CC(=O)C4CC(O)CCC4(C)C3CCC12C (stereo not drawn) [5alpha-CHOLESTAN-3beta-OL-6-ONE],inactive: 0.844
13,C[C@@H]1CN([C@H](C)CO)C(=O)c2c(c3ccccc3n2C)-c2ccccc2CO[C@H]1CN(C)Cc1ccc(C(F)(F)F)cc1,inactive: 1.13
14,C[C@H](CO)N1C[C@H](C)[C@@H](CN(C)S(=O)(=O)c2ccc(F)cc2)OCCCC[C@H](C)Oc2ccc(NC(=O)c3ccccc3)cc2C1=O,inactive: 1.03
15,C[C@@H]1CCCCO[C@@H](CN(C)C(=O)CCC(F)(F)F)[C@H](C)CN([C@H](C)CO)C(=O)c2cc(NC(=O)C3CCCCC3)ccc2O1,inactive: 1
16,CO[C@@H]1CN(C)C(=O)c2cc(NS(=O)(=O)c3cn(C)cn3)ccc2OC[C@H](C)N(CCC(F)(F)F)C[C@H]1C,inactive: 1.01
17,C[C@@]12CCC[C@](C)(C(=O)O[C@@H]3O[C@H](CO)[C@@H](O)[C@H](O)[C@H]3O)[C@@H]1CC[C@]13C[C@H](CC[C@@H]12)[C@](O)(CO)C3,inactive: 1.01
18,O=C(C[C@H]1C=C[C@@H](NC(=O)c2cccnc2)[C@H](CO)O1)NCc1ccncn1,inactive: 0.979
19,COc1ccc(CN2C[C@H](C)[C@@H](OC)CN(C)C(=O)c3ccc(NC(=O)c4nc5ccccc5s4)cc3OC[C@H]2C)cc1,inactive: 1.01

row,Compound,relative growth
1,C[C@H](CO)N1C[C@H](C)[C@@H](CN(C)Cc2ccc(F)cc2)Oc2cc(C#CC(C)(C)O)ccc2S1(=O)=O,inactive: 1.01
2,CC(C)NC(=O)N(C)C[C@H]1Oc2c(NS(=O)(=O)c3cn(C)cn3)cccc2C(=O)N([C@@H](C)CO)C[C@H]1C,inactive: 0.99
3,COc1ccc(CN(C)C[C@@H]2OCCCC[C@@H](C)Oc3ccc(NC(=O)c4ccccc4)cc3C(=O)N([C@H](C)CO)C[C@H]2C)cc1,inactive: 1.02
4,NCC[C@@H]1CC[C@@H](NC(=O)C2CCCCC2)[C@@H](CO)O1,inactive: 0.97
5,C[C@H](CO)N1C[C@H](C)[C@H](CN(C)S(C)(=O)=O)Oc2ccc(NS(=O)(=O)c3ccccc3)cc2C1=O,inactive: 0.988
6,C[C@@H]1CN([C@H](C)CO)C(=O)c2cc(NC(=O)NC3CCCCC3)ccc2O[C@@H](C)CCCCO[C@@H]1CN(C)C(=O)c1ccncc1,inactive: 0.987
7,C[C@@H]1CN([C@H](C)CO)S(=O)(=O)c2ccc(C#CC3(O)CCCC3)cc2O[C@@H]1CN(C)C(=O)Cc1cccnc1,inactive: 1
8,COc1ccc(S(=O)(=O)Nc2cccc3c2O[C@H](CN(C)S(=O)(=O)c2ccc(C)cc2)[C@@H](C)CN([C@H](C)CO)C3=O)cc1,inactive: 0.987
9,C[C@@H]1CN([C@H](C)CO)C(=O)CCCn2nncc2CO[C@@H]1CN(C)S(=O)(=O)c1ccc(-n2cccn2)cc1,inactive: 1
10,COc1ccc(NC(=O)Nc2ccc3c(c2)CC(=O)N([C@@H](C)CO)C[C@H](C)[C@H](CN(C)C(=O)Nc2ccc(C(F)(F)F)cc2)O3)cc1,inactive: 1.01
11,C[C@H](CO)N1C[C@H](C)[C@H](CN(C)CC2CCCCC2)OCCCC[C@H](C)Oc2ccc(NC(=O)c3ccccc3)cc2C1=O,inactive: 0.906
12,C[C@@H]1CN([C@@H](C)CO)C(=O)c2cccc(N(C)C)c2O[C@@H]1CN(C)S(=O)(=O)c1ccc(Cl)cc1,inactive: 1.01
13,C[C@@H]1CCCCO[C@H](CN(C)C(=O)NC2CCCCC2)[C@@H](C)CN([C@H](C)CO)C(=O)c2cc(NC(=O)CCC(F)(F)F)ccc2O1,inactive: 0.973
14,Cc1noc(C)c1NC(=O)N(C)C[C@H]1OCCCC[C@H](C)Oc2ccc(NS(=O)(=O)c3ccccc3)cc2C(=O)N([C@H](C)CO)C[C@@H]1C,inactive: 1.01
15,C[C@@H]1CN([C@H](C)CO)S(=O)(=O)c2ccc(C#Cc3ccccc3F)cc2O[C@@H]1CN(C)C(=O)Cc1ccncc1,inactive: 1.02
16,COc1ccc(C#Cc2ccc3c(c2)O[C@@H](CN(C)C(=O)CN2CCOCC2)[C@@H](C)CN([C@H](C)CO)S3(=O)=O)cc1,inactive: 0.997
17,C[C@@H]1CCCCO[C@@H](CN(C)C(=O)c2ccncc2)[C@@H](C)CN([C@@H](C)CO)C(=O)c2cc(NC(=O)C3CCCCC3)ccc2O1,inactive: 1.01
18,COc1ccc(NC(=O)N(C)C[C@@H]2Oc3c(NC(=O)c4cnccn4)cccc3C(=O)N([C@@H](C)CO)C[C@H]2C)cc1,inactive: 0.965
